The results in this text go back to US20260078155A1 (NAVIGO PROTEINS, published 2026).

The target in test [1] is T1, FOLR1-Fc (human FOLR1 residues 25-234 fused with the Fc-fragment of human IgG1 followed by a His-tag at the … (human, UniProt P15328 25-234)).
T1 construct: range 25-234; Made in Expi293F cells; also called FOLR1-Fc-His; folate receptor alpha; not shown: Fc-fragment of human IgG1; C-terminal His-tag
Kind of test: SPR (Biacore 3000), FOLR1-Fc immobilized on CM5 chip, Langmuir 1:1. From the text:
A CM5 sensor chip (GE Healthcare) was equilibrated with SPR running buffer. Surface-exposed carboxylic groups were activated by passing a mixture of EDC and NHS to yield reactive ester groups. 700-1500 RU FOLR1 (on-ligand) were immobilized on a flow cell. A flow cell without ligand was used as reference. Injection of ethanolamine after ligand immobilization was used to block unreacted NHS groups. Upon ligand binding, protein analyte was accumulated on the surface increasing the refractive index. This change in the refractive index was measured in real time and plotted as response or resonance units (RU) versus time. The analytes were applied to the chip in serial dilutions with a flow rate of 30 μl/min. The association was performed for 30 seconds and the dissociation for 60 seconds. After each run, the chip surface was regenerated with 30 μl regeneration buffer and equilibrated with running buffer. The control samples were applied to the matrix with a flow rate of 30 μl/min, while they associate for 60 seconds and dissociate for 120 seconds. Regeneration and re-equilibration were performed as previously mentioned. Binding studies were carried out by the use of the Biacore 3000 (GE Healthcare); data evaluation was operated via the BIAevaluation 3.0 software, provided by the manufacturer, by the use of the Langmuir 1:1 model (RI=0).

In test [2] the target is T2, FOLR1 on transfected HEK293-FOLR1-cells (human, UniProt P15328 25-234).
T2 construct: whole, on cells; also called surface-exposed FOLR1; folate receptor alpha
Nature of the test: flow cytometry on HEK293-FOLR1-cells, 0 h in 100% mouse serum. The method, then: (§1) Flow cytometry was used to analyze the specific interaction of FOLR1 binding proteins with surface-exposed FOLR1 but not with FOLR2. Transfected HEK293-FOLR1-cells, HEK293-FOLR2-cells, and empty vector control HEK293-pEntry-cells were trypsinized and resuspended in medium containing FCS, washed and stained in pre-cooled FACS blocking buffer. A cell concentration of 1×10⁶ cells/ml was prepared for cell staining and 100 μl/well were filled into a 96 well plate (Greiner) in triplicate for each cell line. 50 nM of Affilin proteins or monoclonal anti-human-FOLR1 antibody (clone LK 26; BioLegend, 908301) as positive control or anti-human-FOLR2 antibody (clone EM35; Sysmex, BD029864) were added to FOLR overexpressing and control cells. After 45 min the supernatants were removed, and 100 μl/well rabbit anti-Strep-Tag antibody (GenScript; A00626), 1:300 diluted in FACS blocking buffer, were added. Anti-FOLR1 antibody and anti-FOLR2 antibodies were detected with anti-mouse-IgG-Alexa 488 (Invitrogen; A-10680) with a dilution of 1:1000. After removal of the primary antibody, goat anti-rabbit IgG Alexa Fluor 488 antibody (Invitrogen; A11008) was applied in a 1:1000 dilution. Flow cytometry measurement was conducted on the Guava easyCyte 5HT device (Merck-Millipore) at excitation wavelength 488 nm and emission wavelength 520 nm.
(§2) The stability of FOLR1 binding proteins in the presence of serum was analyzed. […] 100 μl Affilin-serum solution was used to analyze the serum stability on HEK293-FOLR1-cells by FACS as described above (example 6). FACS analysis confirmed the binding of Affilin proteins to FOLR1 even after 24 h incubation in mouse serum (see Table 5). Further FOLR1 proteins were tested (results not shown) and binding to FOLR1 was confirmed even in the presence of serum.

The target of test [3] is T2, FOLR1 on transfected HEK293-FOLR1-cells. Kind of test: flow cytometry on HEK293-FOLR1-cells, after 24 h in 100% mouse serum at 37 C. The method, then:
as §1, §2

Test [4] has the same target. Nature of the test: flow cytometry on HEK293-FOLR1-cells; EC50 after 24 h in mouse serum against 0 h. The method, then: as §1, §2

B1: Affilin-199482 (designed binder)
chain: MQIFVKTLEERYITLEVEPSDTIGNVKAKIQDKEGIPPDQQKLLWYGEQLEDGRTLSDYNILGDAVLKLQLRLRAAGGSGGGSGGGSGGGSGGGSGMQIFVKTLEERYITLEVEPSDTIGNVKAKIQDKEGIPPDQQKLLWYGEQLEDGRTLSDYNILGDAVLKLQLRLRAA
The molecule B1 came in with an equilibrium dissociation constant (Kd) in test [1] of 0.0261 nM.

B2: Affilin-199487 (designed binder)
chain: MQIFVKTLEEKYITLEVEPSDTIENVKARVQDKEGIPPDQQKLLWYGEQLEDGRTLSDYNILGGAVLKLQLRLRAAMQIFVKTLEEKYITLEVEPSDTIENVKARVQDKEGIPPDQQKLLWYGEQLEDGRTLSDYNILGGAVLKLQLRLRAA
With B2, the values for the EC50 in test [2] and in test [3] were 0.33 nM and 0.62 nM, respectively. This molecule also displayed a Kd in test [1] of 0.151 nM. Also, the “Decrease (fold)” value in test [4] amounted to 1.9 fold.

B3: Affilin-199477 (designed binder)
chain: MQIFVKTLEEKYITLEVEPSDTIENVKAKIQDKEGIPPDQQKLLWYGKQLEDGRTLSDYNILGGAVLKLQLRLRAAMQIFVKTLEEKYITLEVEPSDTIENVKAKIQDKEGIPPDQQKLLWYGKQLEDGRTLSDYNILGGAVLKLQLRLRAA
For B3, binding in test [1] was put at a Kd of 0.0187 nM.

B4: Affilin-199479 (designed binder)
chain: MQIFVKTLEERYITLEVEPSDTIGNVKAKIQDKEGIPPDQQKLLWYGEQLEDGRTLSDYNILGDAVLKLQLRLRAAMQIFVKTLEERYITLEVEPSDTIGNVKAKIQDKEGIPPDQQKLLWYGEQLEDGRTLSDYNILGDAVLKLQLRLRAA
As for B4, the EC50 is 0.34 nM in test [2] and 0.31 nM in test [3]. In addition, the dissociation constant (Kd) in test [1] was 0.0474 nM. For the same molecule, in test [4], the “Decrease (fold)” value came to 1 fold.

B5: Affilin-199489 (designed binder)
chain: MQIFVKTLEEKYIALEVEPSDTIENVKAKVQDKEGIPPDQQELLWYGEQLEDGRTLSDYNILGGAVLKLQLRLRAAMQIFVKTLEEKYIALEVEPSDTIENVKAKVQDKEGIPPDQQELLWYGEQLEDGRTLSDYNILGGAVLKLQLRLRAA
B5: the EC50 in test [2] stood at 0.49 nM; in test [3], 0.7 nM. Further, the affinity in test [1], expressed as Kd, was 0.206 nM. Moreover, the “Decrease (fold)” value in test [4] was 1.4 fold.

B6: Affilin-187803 (designed binder)
chain: MQIFVQTYNIKDITLEVEPSDTIENVKAKIQDKEGIPPDQQMLFWSGKQLEDGRTLSDYNIIAYMTLTLHLKLRAA
notes: Ubiquitin mutein, monomer
Regarding B6, in test [1], the dissociation constant (Kd) worked out at 388 nM.

B7: Affilin-199488-Dota (designed binder)
chain: MQIFVKTLEEKYITLEVEPSDTIENVKARVQDKEGIPPDQQKLLWYGEQLEDGRTLSDYNILGGAVLKLQLRLRAAGGSGGGSGGGSGGGSGMQIFVKTLEEKYITLEVEPSDTIENVKARVQDKEGIPPDQQKLLWYGEQLEDGRTLSDYNILGGAVLKLQLRLRAA
modifications: DOTA label (Maleimide-DOTA, Example 7); coupling residue not stated for this construct
Consider B7, for which the EC50 in test [2] is 0.35 nM; in test [3] it was 0.45 nM. In addition, the “Decrease (fold)” value in test [4] stood at 1.3 fold.

B8: Affilin-199488 (designed binder)
chain: MQIFVKTLEEKYITLEVEPSDTIENVKARVQDKEGIPPDQQKLLWYGEQLEDGRTLSDYNILGGAVLKLQLRLRAAGGSGGGSGGGSGGGSGMQIFVKTLEEKYITLEVEPSDTIENVKARVQDKEGIPPDQQKLLWYGEQLEDGRTLSDYNILGGAVLKLQLRLRAA
For the molecule B8, the half-maximal effective concentration (EC50) in test [2] came out at 0.44 nM; in test [3] it was 0.65 nM. Further, the dissociation constant (Kd) in test [1] was found to be 0.0849 nM. For the same molecule, the “Decrease (fold)” value in test [4] is 1.5 fold.

B9: Affilin-199481 (designed binder)
chain: MQIFVKTLEERYITLEVEPSDTIGNVKAKIQDKEGIPPDQQKLLWYGEQLEDGRTLSDYNILGDAVLKLQLRLRAAGGSGGGSGGGSGGGSGMQIFVKTLEERYITLEVEPSDTIGNVKAKIQDKEGIPPDQQKLLWYGEQLEDGRTLSDYNILGDAVLKLQLRLRAA
In the case of B9, in test [1], the dissociation constant Kd is 0.0312 nM.

B10: Affilin-199478 (designed binder)
chain: MQIFVKTLEEKYITLEVEPSDTIENVKAKIQDKEGIPPDQQKLLWYGKQLEDGRTLSDYNILGGAVLKLQLRLRAAGGSGGGSGGGSGGGSGMQIFVKTLEEKYITLEVEPSDTIENVKAKIQDKEGIPPDQQKLLWYGKQLEDGRTLSDYNILGGAVLKLQLRLRAA
On to B10, for which the Kd in test [1] was 0.207 nM.

B11: Affilin-199490-Dota (designed binder)
chain: MQIFVKTLEEKYIALEVEPSDTIENVKAKVQDKEGIPPDQQELLWYGEQLEDGRTLSDYNILGGAVLKLQLRLRAAGGSGGGSGGGSGGGSGMQIFVKTLEEKYIALEVEPSDTIENVKAKVQDKEGIPPDQQELLWYGEQLEDGRTLSDYNILGGAVLKLQLRLRAA
modifications: DOTA label (Maleimide-DOTA, Example 7); coupling residue not stated for this construct
notes: Maleimide coupling needs a cysteine
With B11, the figures for the EC50 in test [2] and in test [3] were 0.3 nM and 0.37 nM, respectively. Further, the “Decrease (fold)” value in test [4] worked out at 1.2 fold.

B12: Affilin-199480 (designed binder)
chain: MQIFVKTLEERYITLEVEPSDTIGNVKAKIQDKEGIPPDQQKLLWYGEQLEDGRTLSDYNILGDAVLKLQLRLRAAGGSGGGSGGGMQIFVKTLEERYITLEVEPSDTIGNVKAKIQDKEGIPPDQQKLLWYGEQLEDGRTLSDYNILGDAVLKLQLRLRAA
Molecule B12 came in with a Kd in test [1] of 0.0309 nM.

B13: Affilin-189864 (designed binder)
chain: MQIFVVTRLYKEITLEVEPSDTIENVKAKIQDKEGIPPDQQYLYWDGKQLEDGRTLSDYNIRFGDHLDLTLGLRAA
notes: Ubiquitin mutein, monomer
In turn, B13 had a Kd in test [1] of 0.0291 nM.

B14: Affilin-189853 (designed binder)
chain: MQIFVVTRLYKETALEVEPSDTIENVKAKIQDKEGIPPDQQYLYWDGKQLEDGRTLSDYNIRFGYHLDLTLGLRAA
notes: Ubiquitin mutein, monomer
Turning to B14, in test [1], the Kd was determined as 0.00742 nM.

B15: Affilin-181919 (designed binder)
chain: MQIFVVTRLYKEITLEVEPSDTIENVKAKIQDKEGIPPDQQYLYWDGKQLEDGRTLSDYNIRFGYHLDLTLGLRAA
notes: Ubiquitin mutein, monomer
As for B15, the dissociation constant Kd in test [1] worked out at 16.8 nM.

B16: Affilin-189872 (designed binder)
chain: MQIFVVTRLYKEITLEVEPSDTIENVKAKIQDKEGIPPDQQYLYGDGKQLEDGRTLSDYNIRFGDHLDLTLGLRAA
notes: Ubiquitin mutein, monomer
Regarding B16, the Kd in test [1] came to 0.00417 nM.

B17: Affilin-197126 (designed binder)
chain: MQIFVKTLEEKYITLEVEPSDTIANVKAKIQDKEGIPPDQQKLLWYGKQLEDGRTLSDYNILGGAVLKLPLRLRAA
notes: Ubiquitin mutein, monomer
For B17, the dissociation constant (Kd) in test [1] was determined as 2.15 nM.

A word on the Kd: it is the free concentration of one partner at which half of the binding sites on the other are occupied at equilibrium, for simple one-to-one binding. High values mean a looser complex, low ones a tighter complex. A word on the EC50: it is the concentration that produces a half-maximal response.
